Laboratory results as given in PubChem BioAssay AID485294 (National Center for Advancing Translational Sciences (NCATS), 2010).
The campaign covered roughly 370,000 compounds. About 150 (0.041%) were called active. Inconclusive results, whose numbers are uncertain, are shown with a selection of clear calls. Calls come from the whole dose curve; as a rule, active = well fitted inhibition curve with a large enough effect; inconclusive = small, poorly fitted or top-dose-only effect; inactive = flat fitted curve, though single readings scatter. Potencies of inconclusive entries are left out as doubtful fits. Peptide text beside a SMILES is read from it. * marks the point of attachment. Cbz = O=C(OCc1ccccc1)*
Note: nearly all actives have a fitted effect of over 25% in size.
Potency is the fitted concentration of half-maximal effect; tags give direction and shape of the fitted curve.

These molecules were tested against Beta-lactamase (Escherichia coli (strain K12)) (UniProt P00811) (assay: qHTS Inhibitors of AmpC Beta-Lactamase (assay with detergent)). Conditions: AmpC hydrolysis of nitrocefin, absorbance 480 nm, 0.01% Triton; series mostly up to 114 µM.
Sequence of UniProt P00811 (P00811 whole entry, looked up): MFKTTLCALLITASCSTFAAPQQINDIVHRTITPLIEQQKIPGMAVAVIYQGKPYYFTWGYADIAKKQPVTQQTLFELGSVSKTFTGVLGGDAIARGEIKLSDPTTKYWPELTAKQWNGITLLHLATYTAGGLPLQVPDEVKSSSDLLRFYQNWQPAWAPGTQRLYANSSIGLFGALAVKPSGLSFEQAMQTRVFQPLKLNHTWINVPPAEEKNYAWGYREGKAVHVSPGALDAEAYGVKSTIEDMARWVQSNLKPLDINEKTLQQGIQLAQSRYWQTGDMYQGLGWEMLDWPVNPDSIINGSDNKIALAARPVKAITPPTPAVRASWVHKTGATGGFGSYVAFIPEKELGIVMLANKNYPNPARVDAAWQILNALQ
In short: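 20 mM phosphate pH 7.0 + 0.01% (detergent screen) or 0.0001% Triton X-100; 5.3 nM AmpC reagent; cpd preinc 15 min RT; nitrocefin (800 uM stock) to start; A480 q20 s × 4 min; Activity was normalised to no-enzyme and no-compound control wells.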
CCn1c(/C=C/c2ccc(O)c(O)c2)nc2ccccc2c1=O was tested, and the Potency was “inactive”.
c1cc(C(c2nnnn2C2CCCC2)N2CCOCC2)ccn1 (stereo unspecified) was tested, and the Potency was “inactive”.
With CCOC(=O)c1sc(NC(C)=O)cc1C the Potency was inconclusive [inhibitor, full curve, poor fit].
For CCCn1c(=O)c2ccccc2n2c(SCCOc3ccc(OC)cc3)nnc12, the Potency was inconclusive [inhibitor, single point].
With Cc1ccc(NC(=O)CCOc2ccccc2)cc1 the Potency was “inactive”.
With COc1ccc(-n2nc([N+](=O)[O-])c(=NC3CCN(Cc4ccccc4)CC3)n2O)cc1 the Potency was “inactive”.
COc1cc(C)c(C(C)C)cc1S(=O)(=O)NC1CC(C)(C)NC(C)(C)C1 was tested, and the Potency was inconclusive [inhibitor, full curve, poor fit].
C=CCSc1nnc(Cn2c(=O)sc3ccccc32)n1C was tested, and the Potency was inconclusive [inhibitor, full curve, poor fit].
With CCOc1ccc(N(Cc2cc3ccc(C)cc3[nH]c2=O)S(=O)(=O)c2ccccc2)cc1 the Potency was inconclusive [inhibitor, partial curve].
For CCCSC1=C(C#N)C(c2ccccc2C)C(C(=O)OC)C(=O)N1 (stereo unspecified), the Potency was inconclusive [inhibitor, full curve].
With Cc1ccc(CNc2nc(-c3ccco3)nn2S(C)(=O)=O)cc1 the Potency was “inactive”.
With C=CCOC(=O)c1[nH]c2c(c1C)C(=O)CC(c1cc(OC)c(OC)c(OC)c1)C2 (stereo unspecified) the Potency was “inactive”.
In the case of COc1ccc(/C=N/NC(=O)CCc2c(C)n[nH]c2C)cc1O, the Potency is reported as inconclusive [inhibitor, single point].
CCn1c(=O)n(CC)c2cc(N3CCCC3)c(NC(=O)c3ccccc3F)cc21 was tested, and the Potency was inconclusive [inhibitor, full curve, poor fit].
In the case of CC(=O)Nc1nc2ccc(C(=O)NCCOC(=O)C3CCCCC3)cc2s1, the Potency is reported as inconclusive [inhibitor, single point].
COC(=O)c1ccc(C(c2c(C)n(C)n(-c3ccccc3)c2=O)c2c(C)n(C)n(-c3ccccc3)c2=O)cc1 was tested, and the Potency was inconclusive [inhibitor, full curve, poor fit].
In the case of COc1ccc(-c2nc3cc(C(C)C)ccc3o2)cc1NC(=O)c1ccccc1[N+](=O)[O-], the Potency is reported as “inactive”.
In the case of COC(=O)c1cc(Br)c(=O)n(-c2ccccc2F)c1, the Potency is reported as inconclusive [inhibitor, full curve, poor fit].
For S=C(Nc1cccnc1)N1CCc2ccccc21, the Potency was “inactive”.
With CCc1sc(NC(=O)CN2CCOCC2)nc1-c1ccccc1 the Potency was inconclusive [inhibitor, full curve, poor fit].
With Cc1cc(NC(=O)C2CCCN(S(=O)(=O)c3cnc[nH]3)C2)ccc1Br (stereo unspecified) the Potency was inconclusive [inhibitor, partial curve, poor fit].
COc1cc(NC(=O)CN2C(=O)c3ccccc3C2=O)c(C(=O)O)cc1OC was tested, and the Potency was inconclusive [inhibitor, partial curve, poor fit].
O=S(=O)(c1ccccc1)N1CCN=C1SCc1ccc(Cl)cc1 was tested, and the Potency was “inactive”.
With CNC(=O)c1c[nH]c2ccc(S(=O)(=O)Nc3cccc(SC)c3)cc2c1=O the Potency was “inactive”.
In the case of O=C(NCc1ccc2c(c1)OCO2)c1cccs1, the Potency is reported as inconclusive [inhibitor, full curve, poor fit].
CCN(CC)CCOc1cc2c(nn1)Oc1ccccc1N2C was tested, and the Potency was inconclusive [inhibitor, partial curve, poor fit].
CC(=O)N(Cc1cc2ccccc2[nH]c1=O)c1ccc(C)cc1 was tested, and the Potency was inconclusive [inhibitor, full curve, poor fit].
For CCN(C(=S)Nc1ccc(C(C)=O)cc1)C1CCCCC1, the Potency was “inactive”.
In the case of Cc1nn(CC(=O)NCc2ccc(F)cc2)c2ccccc12, the Potency is reported as “inactive”.
With O=C(CCN1C(=O)c2ccccc2S1(=O)=O)Nc1ccc2c(c1)OCCO2 the Potency was inconclusive [inhibitor, full curve, poor fit].
In the case of CCc1noc(N)c1C(=O)Nc1ccc(F)c(Cl)c1, the Potency is reported as “inactive”.
With COCCn1nnnc1C(c1ccc2ncccc2c1)N1CCc2ccccc21 (stereo unspecified) the Potency was inconclusive [inhibitor, full curve, poor fit].
For COc1ccccc1C1CC(c2ccc(Cl)cc2Cl)Nc2nc(N)nn21 (stereo unspecified), the Potency was “inactive”.
For COc1ccccc1NC(=O)C(C)OC(=O)C1CCN(S(=O)(=O)c2ccc(C)c(C)c2)CC1 (stereo unspecified), the Potency was inconclusive [inhibitor, partial curve, poor fit].
With Cc1nc(-c2nc(-c3c(C(=O)NN)noc3C)cs2)cs1 the Potency was inconclusive [inhibitor, full curve, poor fit].
COc1ccc(-c2nnc(N(C)C(=O)c3cccnc3)s2)cc1 was tested, and the Potency was inconclusive [inhibitor, full curve, poor fit].
For CC(C)[C@H](NC(=O)N1CC(=O)Nc2ccccc21)C(=O)N1CCC[C@@H]1C(=O)O, the Potency was inconclusive [inhibitor, full curve, poor fit].
CN(Cc1ccccc1F)Cc1cc(=O)oc2cc(O)c(Cl)cc12 was tested, and the Potency was inconclusive [inhibitor, partial curve].
In the case of O=C(CN1CCN(CC(=O)Nc2ccc(-c3ccccc3)cc2)CC1)Nc1ccc(F)cc1, the Potency is reported as inconclusive [inhibitor, single point].
In the case of Cc1cc(N2CCN(c3cccc(C)c3C)CC2)n2cnnc2n1, the Potency is reported as inconclusive [inhibitor, partial curve, poor fit].
In the case of COc1ccc(S(=O)(=O)N2CCCCC2)cc1NC(=O)C1COc2ccccc2O1 (stereo unspecified), the Potency is reported as “inactive”.
For CCOC(=O)Cc1csc(/N=C/c2c(O)n(-c3ccc(C)cc3C)c(=O)c3ccccc23)n1, the Potency was inconclusive [inhibitor, full curve].
In the case of CCN(CC(=O)Nc1c(F)cccc1F)C(=O)Cc1ccccc1, the Potency is reported as inconclusive [inhibitor, full curve, poor fit].
With COC(=O)C(CO)NC(=O)C(C)NC(=O)CNC(=O)OCc1ccccc1 (stereo not drawn) (Cbz-Gly-Ala-Ser-OMe; configuration not given here) the Potency was inconclusive [inhibitor, single point].
For COc1cc(Br)cc2cc(C(=O)N3CCN(c4ccccn4)CC3)c(=O)oc12, the Potency was inconclusive [inhibitor, full curve].
In the case of COc1cccc(/C=N/n2c(=O)[nH]c3ccccc32)c1OC, the Potency is reported as inconclusive [inhibitor, full curve, poor fit].
With C#CC(C)(CC)NC(=O)c1cc(OC)c(OC)c(OC)c1 (stereo unspecified) the Potency was inconclusive [inhibitor, full curve, poor fit].
For CCN(C(=O)C12CC3CC(CC(C3)C1)C2)C1CCS(=O)(=O)C1 (stereo unspecified), the Potency was inconclusive [inhibitor, full curve].
With CCn1nc(-c2ccccc2)c2nc3ccccc3nc21 the Potency was inconclusive [inhibitor, full curve].
In the case of CC1CC(CC(=O)Nc2nc(-c3ccccc3)cs2)C(=O)O1 (stereo unspecified), the Potency is reported as inconclusive [inhibitor, full curve, poor fit].
For O=C(NCC1CCOCC1)c1cc(COc2cccc(C(F)(F)F)c2)on1, the Potency was inconclusive [inhibitor, full curve, poor fit].
Cc1c(C(=O)Nc2ccncc2)sc2nc(-c3ccccc3)cn12 was tested, and the Potency was inconclusive [inhibitor, partial curve].
CCN(CC)S(=O)(=O)c1ccc2[nH]c(=O)cc(C(=O)NCC3CCCO3)c2c1 (stereo unspecified) was tested, and the Potency was inconclusive [inhibitor, partial curve].
For CCCCn1c(=O)cc(O)c2ccccc21, the Potency was inconclusive [inhibitor, full curve, poor fit].
With CCOc1ccc2oc(C(=O)NNC(=O)c3ccccc3O)c(C)c2c1 the Potency was inconclusive [inhibitor, full curve, poor fit].
For Nc1ccc(N2CCN(c3ccccc3)CC2)c(F)c1, the Potency was “inactive”.
O=C(Oc1c(-c2ccccc2)oc2ccccc2c1=O)c1ccccc1 was tested, and the Potency was inconclusive [inhibitor, single point].
With Cc1cc(C(F)(F)F)c(C#N)c(SCC(=O)Nc2nc3ccccc3s2)n1 the Potency was “inactive”.
For COc1ccc(CCNC(=O)C/C(C)=N/NC(=O)c2ccc([N+](=O)[O-])cc2Cl)cc1OC, the Potency was inconclusive [inhibitor, full curve, poor fit].
O=c1c2c3nc4ccccc4nc3n(-c3cccc(F)c3)c2ncn1Cc1ccc2c(c1)OCO2 was tested, and the Potency was inconclusive [inhibitor, full curve, poor fit].
COc1cc(-c2nc(S(=O)(=O)c3ccc(Br)cc3)c(N3CCOCC3)o2)cc(OC)c1OC was tested, and the Potency was “inactive”.
With CCS(=O)(=O)CCSC1OC(COC(C)=O)C(OC(C)=O)C(OC(C)=O)C1OC(C)=O (stereo unspecified) the Potency was inconclusive [inhibitor, single point].
With COc1ccc(Br)cc1C(=O)Nc1cccc2ccc(C)nc12 the Potency was “inactive”.
Cc1ccc(NCCC(=O)c2cccc([N+](=O)[O-])c2)cc1 was tested, and the Potency was inconclusive [inhibitor, full curve].
In the case of O=C(c1cccs1)N1CCN(Cc2ccccc2)CC1, the Potency is reported as inconclusive [inhibitor, full curve, poor fit].
With CCCCCCCC/C=C\CCCCCCCC(=O)NCCc1ccc(O)c(O)c1 the Potency was inconclusive [inhibitor, full curve, poor fit].
